{"source": "PubChem BioAssay AID1240", "about": "(Sanford-Burnham Center for Chemical Genomics, 2008)", "note": "Hit rate of the full screen: of about 50,000 compounds, about 800 (1.6%) showed an effect of 50% or more. The list shows a part of the results.", "data": [{"biological_target": "Bcl-2-like protein 10 (Homo sapiens) (UniProt Q9HD36)", "sequence (Q9HD36 whole entry, looked up)": "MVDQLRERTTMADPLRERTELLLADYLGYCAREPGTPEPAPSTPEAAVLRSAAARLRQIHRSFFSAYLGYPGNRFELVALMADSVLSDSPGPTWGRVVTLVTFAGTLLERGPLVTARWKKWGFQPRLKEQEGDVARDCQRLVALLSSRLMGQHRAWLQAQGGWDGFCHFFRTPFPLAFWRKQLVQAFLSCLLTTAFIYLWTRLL", "test": "Phenotype converters, Bcl-B/TR3 peptide binding displacement, primary biochemical FP (AID 1240);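 note: 0% = Bcl-B with tracer peptide and DMSO and 100% = tracer peptide lacking Bcl-B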", "details": "GST-Bcl-B / FITC-TR3 peptide fluorescence polarization; stronger effect = higher value; compound at 3.75 mg/L", "units": {"displacement": "%"}, "values": [{"smiles": "O=C(NCc1ccccc1F)c1ccccc1-c1ccccc1", "displacement": -1.6}, {"smiles": "CCOc1ccc2oc(=O)cc(C)c2c1", "displacement": 7.5}, {"smiles": "O=C1c2ccccc2C(=O)N1CCCc1nc2ccccc2c(=O)n1Cc1ccco1", "displacement": -6.3}, {"smiles": "CN1CCN(C(=O)c2ccccc2NC(=O)CCCN2C(=O)c3ccccc3C2=O)CC1", "displacement": -8.1}, {"smiles": "Clc1ccc(CNC23CN4CN(CN(C4)C2)C3)cc1", "displacement": -0.4}, {"smiles": "Cc1ccc(/C=C2\\C(=O)NC(=O)N(Cc3ccccc3)C2=O)o1", "displacement": 18}, {"smiles": "CC(C)=NNC(=O)CN(C1=NS(=O)(=O)c2ccccc21)c1ccccc1", "displacement": -6}, {"smiles": "Cc1cccc(NC(=O)C(C)Oc2cccc(Cl)c2)n1", "note": "(configuration not stated)", "displacement": 1}, {"smiles": "Oc1ccc2nc(-c3ccccc3)[nH]c2c1", "displacement": 5.5}, {"smiles": "Cc1ccccc1NC(=O)c1cccc(S(=O)(=O)NC2CCCCC2)c1", "displacement": 3.5}, {"smiles": "Cc1ccc(C2c3c(n(C)c(=O)n(C)c3=O)N=C3c4ccccc4C(=O)C32)cc1Cl", "note": "(configuration not stated)", "displacement": 12.7}, {"smiles": "CC(=O)c1ccc(NC(=O)/C(=C\\c2ccc(Br)cc2)NC(=O)c2ccco2)cc1", "displacement": -4.7}, {"smiles": "O=C(CCCOc1ccccc1)Nc1ccc(Cl)c(Cl)c1", "displacement": 5}, {"smiles": "Cn1nnnc1SCC(=O)c1ccc(Br)cc1", "displacement": 16.2}, {"smiles": "O=C(N/N=C/c1cccs1)c1cc(C23CC4CC(CC(C4)C2)C3)[nH]n1", "displacement": -11.4}, {"smiles": "CCCC1CCc2c(sc(N)c2C#N)C1", "note": "(configuration not stated)", "displacement": -8.3}, {"smiles": "COC(=O)c1ccccc1NC(=O)c1cccc([N+](=O)[O-])c1C", "displacement": -9.7}, {"smiles": "O=C(O)C1C2CCC(C2)C1C(=O)Nc1nc(-c2ccc(Br)cc2)cs1", "note": "(configuration not stated)", "displacement": -3.2}, {"smiles": "O=c1[nH]c2ccccc2nc1/C=C(\\O)c1cccs1", "displacement": 98.7}, {"smiles": "CN1C(=O)C(=Cc2ccccc2OCc2ccccc2F)C(=O)N(C)C1=O", "displacement": 11}, {"smiles": "CNC(=O)C(=O)Nc1ccc2c(c1)OCO2", "displacement": 5.2}, {"smiles": "Cc1ccc(-c2csc(NC(=O)C3C4C=CC(O4)C3C(=O)O)n2)cc1", "note": "(configuration not stated)", "displacement": -3.8}, {"smiles": "COc1cc(C)c(CNC23CC4CC(CC(C4)C2)C3)cc1C", "displacement": 8.1}, {"smiles": "O=C(NNC(=O)c1ccco1)c1cccc(I)c1", "displacement": -6.6}, {"smiles": "CCC(C)c1c(O)nc(SCC(=O)N2CCOCC2)[nH]c1=O", "note": "(configuration not stated)", "displacement": 6.6}, {"smiles": "Cc1ccc(-c2cc(C(=O)NCC3CCCO3)c3ccccc3n2)c(C)c1", "note": "(configuration not stated)", "displacement": -7.2}, {"smiles": "Cc1ccc(C(=O)N2N=C(c3ccc(Cl)cc3)CC2(O)C(F)(F)F)o1", "note": "(configuration not stated)", "displacement": -0.5}, {"smiles": "Cc1ccc(OCC(=O)N=Nc2c(O)[nH]c(=O)[nH]c2=O)cc1", "displacement": 10.1}, {"smiles": "c1ccc(Oc2nc(-c3ccncc3)nc3ccccc23)cc1", "displacement": 1.4}, {"smiles": "O=C1NC(=S)N/C1=C/c1ccccn1", "displacement": 13.8}, {"smiles": "CCc1c(C)nn2cn[n+](Cc3ccc(Cl)cc3)c2c1[O-]", "displacement": 1.2}, {"smiles": "CCCOC(=O)c1ccc(NS(=O)(=O)Cc2ccccc2)cc1", "displacement": 2.8}, {"smiles": "Cc1ccc(NC(=O)Cc2nnc(NC(=O)Nc3ccccc3)s2)cc1", "displacement": 10}, {"smiles": "CC1=NN(C(=O)c2ccc(N/C(C)=C/C(=O)C(F)(F)F)cc2)C(O)(C(F)(F)F)C1", "note": "(configuration not stated)", "displacement": -11.9}, {"smiles": "COc1cc(OC)cc(C(=O)N2CCN(C(c3ccccc3)c3ccccc3)CC2)c1", "displacement": 5.7}, {"smiles": "CCc1ccc(-n2c(C)cc(/C=C3/SC(=S)NC3=O)c2C)cc1", "displacement": 63}, {"smiles": "CC(=O)N(C(C)=O)c1nc(-c2ccccc2)c(-c2ccccc2)n1/N=C/c1ccccc1", "displacement": 10.8}, {"smiles": "O=C(c1nn2c(c1Br)NC(c1cccs1)CC2C(F)(F)F)N(Cc1ccccc1)Cc1ccccc1", "note": "(configuration not stated)", "displacement": 6.8}, {"smiles": "COC(=O)c1c(NC(=O)C2C3CCC(C3)C2C(=O)O)sc2c1CCCCC2", "note": "(configuration not stated)", "displacement": -1.2}, {"smiles": "O=C(Nc1ccc(Cl)cc1)Nc1nnc(COc2ccccc2F)s1", "displacement": 1.9}, {"smiles": "O=C(Nc1cccc(Br)c1)c1ccc([N+](=O)[O-])cc1", "displacement": 12.7}, {"smiles": "Cc1cc(Cl)c(OCCN2CCCCC2)c(Cl)c1", "displacement": 5.3}, {"smiles": "CC1=C(C(=O)OC(C)C)C(c2coc3ccc(C)cc3c2=O)C2=C(CC(C)(C)CC2=O)N1", "note": "(configuration not stated)", "displacement": -8.4}, {"smiles": "O=C1C2C3C=CC(C3)C2C(=O)N1c1cccc(Oc2cccc(Oc3cccc(N4C(=O)C5C6C=CC(C6)C5C4=O)c3)c2)c1", "note": "(configuration not stated)", "displacement": 17.3}, {"smiles": "Cc1cccc(C(=O)Nc2cc(-c3nc4ncccc4o3)ccc2C)c1", "displacement": -3.8}, {"smiles": "COc1ccc(N2C(=O)c3ccccc3NC2c2ccc(OC)c(CSc3ccccn3)c2)cc1", "note": "(configuration not stated)", "displacement": 10.6}, {"smiles": "COc1cc(/C=N/N2C(=O)C3C4C=CC(CC4)C3C2=O)cc(I)c1O", "note": "(configuration not stated)", "displacement": 3.3}, {"smiles": "COC(=O)c1c(N)sc(C(=O)Nc2ccc(C)cc2C)c1C", "displacement": 9}, {"smiles": "CCCOc1ccc(-c2n[nH]c(=S)n2-c2ccccc2)cc1", "displacement": -0.9}, {"smiles": "C=CCc1cccc2cc(C(=O)N3CCN(C/C=C/c4ccccc4)CC3)c(=O)oc12", "displacement": -0.3}, {"smiles": "CC1(C)CC(=O)C2=C(C1)OC(N)=C(C#N)C2C1CC=CCC1", "note": "(configuration not stated)", "displacement": 2.5}, {"smiles": "CN(C)CCOC(=O)CN1C(=O)S/C(=C/c2ccc(Br)cc2)C1=O", "displacement": 6.9}, {"smiles": "C=CCN1C(=O)/C(=C\\c2ccc(OCc3ccc(F)cc3)c(OCC)c2)C(=O)NC1=S", "displacement": -4.1}, {"smiles": "O=C(O)c1ccccc1/C=C1/SC(=S)N(c2cccc(Cl)c2)C1=O", "displacement": -0.2}, {"smiles": "CC(=O)c1cccc(NC(=O)Nc2ccccc2C)c1", "displacement": -3.8}, {"smiles": "O=C(CC(=O)c1cc(Cl)ccc1O)c1ccc(F)cc1", "displacement": -4.2}, {"smiles": "O=C(N/N=C\\c1cc(Br)cc(I)c1O)c1ccc([N+](=O)[O-])cc1", "displacement": 48.9}, {"smiles": "CS(=O)(=O)N(CC(=O)Nc1cccc2ccccc12)c1cccc(Cl)c1", "displacement": 4}, {"smiles": "Cc1ccc(N(CC(=O)NC(C)C)S(C)(=O)=O)cc1Cl", "displacement": -9.6}, {"smiles": "Brc1ccc(OCCN2CCCC2)cc1", "displacement": -3.5}, {"smiles": "Cc1cc([N+](=O)[O-])ccc1NC(=O)c1cc2ccccc2o1", "displacement": -1.2}, {"smiles": "COc1cccc(C2C(C(=O)OCCc3ccccc3)=C(C)NC3=C2C(=O)CC(C)(C)C3)c1", "note": "(configuration not stated)", "displacement": 3.8}, {"smiles": "COC(=O)C1=C(C)NC(=O)NC1c1ccc(O)cc1", "note": "(configuration not stated)", "displacement": 9.8}, {"smiles": "O=C(NCCOc1ccccc1Cl)C(c1ccccc1)c1ccccc1", "displacement": 9.9}, {"smiles": "COc1cccc(C(=O)N2CCN(Cc3ccccc3Cl)CC2)c1", "displacement": 11}, {"smiles": "CCOC(=O)C(Oc1cc2oc(=O)c3c(c2cc1Cl)CCCC3)c1ccccc1", "note": "(configuration not stated)", "displacement": -0.6}, {"smiles": "COc1ccc(/C=C2\\SC(=S)N(NC(=O)c3ccccc3Cl)C2=O)cc1", "displacement": -7.3}, {"smiles": "COc1ccc(CCNC(=O)c2cccc([N+](=O)[O-])c2C)cc1", "displacement": 1.9}, {"smiles": "CN1CCN(Cn2c(O)c(N=NC(=O)c3ccncc3)c3cc(Br)ccc32)CC1", "displacement": -0.4}, {"smiles": "COc1ccc(C(=O)NC2CCCCC2)cc1OC", "displacement": 1.9}, {"smiles": "CC(=O)c1c(C)n(-c2ccc(Cl)cc2)c2ccc(O)cc12", "displacement": 1.9}, {"smiles": "O=C(Nc1nncs1)c1sc2ccccc2c1Cl", "displacement": -0.6}, {"smiles": "C=CCSc1nc2ccccc2n1CC(=C)Br", "displacement": -3.1}, {"smiles": "Cc1cc(C)cc(NC(=O)COc2ccc(C(C)C)cc2)c1", "displacement": -4}, {"smiles": "N#C/C(=C/c1ccc(I)o1)c1ccc(F)cc1", "displacement": -13.6}, {"smiles": "CC(=O)Nc1ccc(-c2cn3ccccc3n2)cc1", "displacement": 7.9}, {"smiles": "CCCCOc1cccc(C(=O)NCCNc2ccc([N+](=O)[O-])cc2)c1", "displacement": -0.2}, {"smiles": "Cc1ccc(-c2cc3nc(C)c(Cc4ccccc4)c(=O)n3[nH]2)cc1", "displacement": 1.6}, {"smiles": "Cc1c(Cl)cccc1N1C(=O)CC(Sc2ncn[nH]2)C1=O", "note": "(configuration not stated)", "displacement": 13.9}, {"smiles": "Oc1ccc(Nc2ccnc3cc(Cl)ccc23)cc1", "displacement": -18.8}, {"smiles": "O=S(=O)(Cc1ccccc1)N1CCN(c2ccc(F)cc2)CC1", "displacement": 9.1}, {"smiles": "O=C(Cc1ccc(F)cc1F)Nc1cccc2ccccc12", "displacement": 9.4}, {"smiles": "COC(=O)c1ccc(N2C(=O)CC(NCc3ccc(Cl)c(Cl)c3)C2=O)cc1", "note": "(configuration not stated)", "displacement": 0.4}, {"smiles": "Cc1ccc2ncnc(NCCc3ccccc3)c2c1", "displacement": 6.4}, {"smiles": "CCOC(=O)C1=C(C)N=c2s/c(=C\\c3ccccn3)c(=O)n2C1c1ccc(OC)cc1", "note": "(configuration not stated)", "displacement": -11.7}, {"smiles": "COC(=O)C1=C(C)N(Cc2ccco2)C(=O)C1", "displacement": 2.2}, {"smiles": "COc1ccc(N(CC(=O)Nc2ccc(C(C)C)cc2)S(C)(=O)=O)c(OC)c1", "displacement": 1.1}, {"smiles": "Cc1ccc(S(=O)(=O)OCCOS(=O)(=O)c2ccc(C)cc2)cc1", "displacement": -5.7}, {"smiles": "O=C1NC(=O)N(c2ccccc2)C(=O)/C1=C/c1cc2c(cc1Cl)OCO2", "displacement": -2}, {"smiles": "c1ccc2oc(SCCCCSc3nc4ccccc4o3)nc2c1", "displacement": -10.7}, {"smiles": "COc1ccc(/C=C2\\C(=O)ON=C2C)cc1", "displacement": 0.5}, {"smiles": "Cc1cc(=O)[nH]c(SCC(=O)Nc2ccccc2F)n1", "displacement": 2.7}, {"smiles": "CC(=O)Oc1ccc(/C=c2\\sc3nc4ccccc4n3c2=O)cc1", "displacement": 28}, {"smiles": "FC(F)(F)c1cccc(NC(=S)NCCc2ccccc2)c1", "displacement": 7.2}, {"smiles": "COc1ccc(C2NC(=O)CCC2[N+](=O)[O-])c(OC)c1OC", "note": "(configuration not stated)", "displacement": 4.8}, {"smiles": "NC(=O)c1cc(NC(=O)c2ccc([N+](=O)[O-])cc2)ccc1Cl", "displacement": -3.1}, {"smiles": "COc1cc2c(cc1NC(=O)/C=C/c1ccccc1)oc1ccccc12", "displacement": 0}, {"smiles": "COc1ccc(/C=C(\\C#N)C(=O)NCC2CCCO2)cc1", "note": "(configuration not stated)", "displacement": -4.5}, {"smiles": "COc1cc(/C=C2/SC(=S)N(c3cccc(Cl)c3)C2=O)cc(OC)c1O", "displacement": 5.1}, {"smiles": "O=C1/C(=C\\c2ccc(-c3ccccc3Cl)o2)SC(=S)N1Cc1ccccc1", "displacement": 10}, {"smiles": "CCOC(=O)C(=CNc1cc(Cl)ccc1Cl)C(=O)OCC", "displacement": -8.5}, {"smiles": "O=C(Cn1c(NCCCO)nc2ccccc21)c1ccc([N+](=O)[O-])cc1", "displacement": 11.1}, {"smiles": "CCOC(=O)c1c(NC(=O)c2ccc(F)cc2)sc(C)c1CC", "displacement": 46.7}, {"smiles": "Cc1cccc(OCC(=O)Nc2cc(C(F)(F)F)ccc2Cl)c1C", "displacement": -5}, {"smiles": "O=C(NCc1ccccc1)C(=O)Nc1cccc(Cl)c1Cl", "displacement": -4.3}, {"smiles": "Cc1c(CCNC(=O)c2ccccc2)c2ccccc2n1Cc1ccccc1", "displacement": -7.2}, {"smiles": "CCCCC(CC)CNC(=O)C(=O)NCC1CCCO1", "note": "(configuration not stated)", "displacement": -3.6}, {"smiles": "COc1ccc(S(=O)(=O)N2CCN(C(=O)Cc3ccccc3)CC2)cc1", "displacement": 2.3}, {"smiles": "O=C(Nc1ccc(-c2ccc(NC(=O)c3ccccc3Cl)cc2)cc1)c1ccccc1Cl", "displacement": 16.9}, {"smiles": "COc1ccc2c(c1)OCC/C2=N/OC(=O)c1ccc(OC)c([N+](=O)[O-])c1", "displacement": -9}, {"smiles": "O=C(Nc1ccccc1C(F)(F)F)C(F)(F)F", "displacement": -1.5}, {"smiles": "Cc1ccc(/C=N\\NC(=O)C(O)(c2ccccc2)c2ccccc2)o1", "displacement": -1.1}]}]}
